# Some of the results follow.
# B1: EEA (Euonymus europaeus) (protein)
# chain: MASTIIATGPTYRVYCRAAPNYNMIVGKGVAFLAPIDETNELQYWYKDDTYSYIKDEAGLPAFSLVNKATGLTLKHSNHHPVPVKLVTYNPNVVDESVLWSQADDRGDGYSAIRSLTNPASHLEAAPLNDWSYNGAIIMGGVWIDAYNQQWKIEPHTG
# How the values were obtained:
# Assay in all cases: glycan array binding signal (z-score within array); higher = stronger binding
# Conditions in all cases: glycan notation: IUPAC condensed, linker removed
# [1] = target: Fuc(a1-2)Gal(b1-4)[Fuc(a1-3)]GlcNAc(b1-3)GalNAc
# Procedure, shortened: (§1)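 Negative Z-scores can be read as non-binding. The Z-score is calculated within each array and then averaged across arrays of one protein sequence at different concentrations or buffers and across linkers. Arrays, 3228 in all, were curated from the Consortium for Functional Glycomics database and kept only where the protein sequence was available.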
# [2] = target: Fuc(a1-2)Gal(b1-4)[Fuc(a1-3)]GlcNAc(b1-3)[Neu5Ac(a2-6)Gal(b1-4)GlcNAc(b1-6)]Gal(b1-4)Glc
# Procedure, shortened: as §1
# [3] = target: Fuc(a1-2)Gal3S(b1-4)GlcNAc
# Procedure, shortened: as §1
# [4] = target: Fuc(a1-2)Gal6S(b1-3)GlcNAc
# Procedure, shortened: as §1
# [5] = target: Fuc(a1-2)Gal6S(b1-3)GlcNAc6S
# Procedure, shortened: as §1
# Fuc(a1-2)Gal6S(b1-4)Glc = target: Fuc(a1-2)Gal6S(b1-4)Glc
# Procedure, shortened: as §1
# [6] = target: Fuc(a1-2)Gal6S(b1-4)Glc6S
# Procedure, shortened: as §1
# [7] = target: Fuc(a1-2)Gal6S(b1-4)GlcNAc
# Procedure, shortened: as §1
# Fuc(a1-2)GlcNAc = target: Fuc(a1-2)GlcNAc
# Procedure, shortened: as §1
# Fuc(a1-2)[Gal(a1-3)]Gal = target: Fuc(a1-2)[Gal(a1-3)]Gal
# Procedure, shortened: as §1
# [8] = target: Fuc(a1-2)[Gal(a1-3)]Gal(b1-3)GalNAc
# Procedure, shortened: as §1
# [9] = target: Fuc(a1-2)[Gal(a1-3)]Gal(b1-3)GalNAc(b1-3)Gal(a1-4)Gal(b1-4)Glc
# Procedure, shortened: as §1
# [10] = target: Fuc(a1-2)[Gal(a1-3)]Gal(b1-3)GlcNAc
# Procedure, shortened: as §1
# [11] = target: Fuc(a1-2)[Gal(a1-3)]Gal(b1-3)GlcNAc(b1-2)Man(a1-3)[Fuc(a1-2)[Gal(a1-3)]Gal(b1-3)GlcNAc(b1-2)Man(a1-6)]Man(b1-4)GlcNAc(b1-4)GlcNAc
# Procedure, shortened: as §1
# [12] = target: Fuc(a1-2)[Gal(a1-3)]Gal(b1-3)GlcNAc(b1-2)Man(a1-3)[Fuc(a1-2)[Gal(a1-3)]Gal(b1-3)GlcNAc(b1-2)Man(a1-6)]Man(b1-4)GlcNAc(b1-4)[Fuc(a1-6)]GlcNAc
# Procedure, shortened: as §1
# [13] = target: Fuc(a1-2)[Gal(a1-3)]Gal(b1-3)GlcNAc(b1-3)GalNAc
# Procedure, shortened: as §1
# [14] = target: Fuc(a1-2)[Gal(a1-3)]Gal(b1-3)GlcNAc(b1-6)GalNAc
# Procedure, shortened: as §1
# [15] = target: Fuc(a1-2)[Gal(a1-3)]Gal(b1-4)Glc
# Procedure, shortened: as §1
# [16] = target: Fuc(a1-2)[Gal(a1-3)]Gal(b1-4)GlcNAc
# Procedure, shortened: as §1
# [17] = target: Fuc(a1-2)[Gal(a1-3)]Gal(b1-4)GlcNAc(b1-2)Man
# Procedure, shortened: as §1
# [18] = target: Fuc(a1-2)[Gal(a1-3)]Gal(b1-4)GlcNAc(b1-2)Man(a1-3)[Fuc(a1-2)[Gal(a1-3)]Gal(b1-4)GlcNAc(b1-2)Man(a1-6)]Man(b1-4)GlcNAc(b1-4)GlcNAc
# Procedure, shortened: as §1
# [19] = target: Fuc(a1-2)[Gal(a1-3)]Gal(b1-4)GlcNAc(b1-2)Man(a1-3)[Fuc(a1-2)[Gal(a1-3)]Gal(b1-4)GlcNAc(b1-2)Man(a1-6)]Man(b1-4)GlcNAc(b1-4)[Fuc(a1-6)]GlcNAc
# Procedure, shortened: as §1
# [20] = target: Fuc(a1-2)[Gal(a1-3)]Gal(b1-4)GlcNAc(b1-3)GalNAc
# Procedure, shortened: as §1
# [21] = target: Fuc(a1-2)[Gal(a1-3)]Gal(b1-4)GlcNAc(b1-6)GalNAc
# Procedure, shortened: as §1
# [22] = target: Fuc(a1-2)[Gal(a1-3)]Gal(b1-4)[Fuc(a1-3)]Glc
# Procedure, shortened: as §1
# [23] = target: Fuc(a1-2)[Gal(a1-3)]Gal(b1-4)[Fuc(a1-3)]GlcNAc
# Procedure, shortened: as §1
# [24] = target: Fuc(a1-2)[Gal(a1-3)]Gal(b1-4)[Fuc(a1-3)]GlcNAc(b1-3)GalNAc
# Procedure, shortened: as §1
# [25] = target: Fuc(a1-2)[Gal(a1-4)]Gal(b1-4)GalNAc
# Procedure, shortened: as §1
# [26] = target: Fuc(a1-2)[Gal(a1-4)]Gal(b1-4)GlcNAc
# Procedure, shortened: as §1
# [27] = target: Fuc(a1-2)[GalNAc(a1-3)]Gal
# Procedure, shortened: as §1
# [28] = target: Fuc(a1-2)[GalNAc(a1-3)]Gal(b1-3)GalNAc(a1-3)[Fuc(a1-2)]Gal(b1-4)GlcNAc
# Procedure, shortened: as §1
# [29] = target: Fuc(a1-2)[GalNAc(a1-3)]Gal(b1-3)GalNAc(b1-3)Gal(a1-4)Gal(b1-4)Glc
# Procedure, shortened: as §1
# [30] = target: Fuc(a1-2)[GalNAc(a1-3)]Gal(b1-3)GlcNAc
# Procedure, shortened: as §1
# [31] = target: Fuc(a1-2)[GalNAc(a1-3)]Gal(b1-3)GlcNAc(b1-2)Man(a1-3)[Fuc(a1-2)[GalNAc(a1-3)]Gal(b1-3)GlcNAc(b1-2)Man(a1-6)]Man(b1-4)GlcNAc(b1-4)GlcNAc
# Procedure, shortened: as §1
# [32] = target: Fuc(a1-2)[GalNAc(a1-3)]Gal(b1-3)GlcNAc(b1-2)Man(a1-3)[Fuc(a1-2)[GalNAc(a1-3)]Gal(b1-3)GlcNAc(b1-2)Man(a1-6)]Man(b1-4)GlcNAc(b1-4)[Fuc(a1-6)]GlcNAc
# Procedure, shortened: as §1
# [33] = target: Fuc(a1-2)[GalNAc(a1-3)]Gal(b1-3)GlcNAc(b1-3)GalNAc
# Procedure, shortened: as §1
# [34] = target: Fuc(a1-2)[GalNAc(a1-3)]Gal(b1-3)GlcNAc(b1-6)GalNAc
# Procedure, shortened: as §1
# [35] = target: Fuc(a1-2)[GalNAc(a1-3)]Gal(b1-4)Glc
# Procedure, shortened: as §1
# [36] = target: Fuc(a1-2)[GalNAc(a1-3)]Gal(b1-4)GlcNAc
# Procedure, shortened: as §1
# [37] = target: Fuc(a1-2)[GalNAc(a1-3)]Gal(b1-4)GlcNAc(b1-2)Man
# Procedure, shortened: as §1
# [38] = target: Fuc(a1-2)[GalNAc(a1-3)]Gal(b1-4)GlcNAc(b1-2)Man(a1-3)[Fuc(a1-2)[GalNAc(a1-3)]Gal(b1-4)GlcNAc(b1-2)Man(a1-6)]Man(b1-4)GlcNAc(b1-4)GlcNAc
# Procedure, shortened: as §1
# [39] = target: Fuc(a1-2)[GalNAc(a1-3)]Gal(b1-4)GlcNAc(b1-2)Man(a1-3)[Fuc(a1-2)[GalNAc(a1-3)]Gal(b1-4)GlcNAc(b1-2)Man(a1-6)]Man(b1-4)GlcNAc(b1-4)[Fuc(a1-6)]GlcNAc
# Procedure, shortened: as §1
# [40] = target: Fuc(a1-2)[GalNAc(a1-3)]Gal(b1-4)GlcNAc(b1-3)Gal(b1-4)GlcNAc
# Procedure, shortened: as §1
# [41] = target: Fuc(a1-2)[GalNAc(a1-3)]Gal(b1-4)GlcNAc(b1-3)Gal(b1-4)GlcNAc(b1-3)Gal(b1-4)GlcNAc
# Procedure, shortened: as §1
# [42] = target: Fuc(a1-2)[GalNAc(a1-3)]Gal(b1-4)GlcNAc(b1-3)GalNAc
# Procedure, shortened: as §1
binder,measurement,setting,value
B1,glycan array binding signal (z-score),[1],0.023
same,glycan array binding signal (z-score),[2],-0.27
same,glycan array binding signal (z-score),[3],-0.047
same,glycan array binding signal (z-score),[4],-0.278
same,glycan array binding signal (z-score),[5],-0.003
same,glycan array binding signal (z-score),Fuc(a1-2)Gal6S(b1-4)Glc,-0.168
same,glycan array binding signal (z-score),[6],-0.155
same,glycan array binding signal (z-score),[7],-0.189
same,glycan array binding signal (z-score),Fuc(a1-2)GlcNAc,-0.153
same,glycan array binding signal (z-score),Fuc(a1-2)[Gal(a1-3)]Gal,1.79
same,glycan array binding signal (z-score),[8],3.44
same,glycan array binding signal (z-score),[9],2.51
same,glycan array binding signal (z-score),[10],5.83
same,glycan array binding signal (z-score),[11],5.22
same,glycan array binding signal (z-score),[12],3.76
same,glycan array binding signal (z-score),[13],2.63
same,glycan array binding signal (z-score),[14],3.77
same,glycan array binding signal (z-score),[15],4.49
same,glycan array binding signal (z-score),[16],6.17
same,glycan array binding signal (z-score),[17],3.94
same,glycan array binding signal (z-score),[18],11.4
same,glycan array binding signal (z-score),[19],5.12
same,glycan array binding signal (z-score),[20],4.01
same,glycan array binding signal (z-score),[21],-0.195
same,glycan array binding signal (z-score),[22],0.029
same,glycan array binding signal (z-score),[23],-0.181
same,glycan array binding signal (z-score),[24],-0.186
same,glycan array binding signal (z-score),[25],-0.067
same,glycan array binding signal (z-score),[26],-0.233
same,glycan array binding signal (z-score),[27],-0.23
same,glycan array binding signal (z-score),[28],-0.159
same,glycan array binding signal (z-score),[29],-0.264
same,glycan array binding signal (z-score),[30],0.824
same,glycan array binding signal (z-score),[31],-0.194
same,glycan array binding signal (z-score),[32],-0.189
same,glycan array binding signal (z-score),[33],-0.142
same,glycan array binding signal (z-score),[34],-0.223
same,glycan array binding signal (z-score),[35],-0.197
same,glycan array binding signal (z-score),[36],-0.089
same,glycan array binding signal (z-score),[37],-0.224
same,glycan array binding signal (z-score),[38],-0.163
same,glycan array binding signal (z-score),[39],-0.273
same,glycan array binding signal (z-score),[40],-0.249
same,glycan array binding signal (z-score),[41],0.128
same,glycan array binding signal (z-score),[42],-0.194

# — the supplement of paper PMC8728848
